Experimental data reported in the BET-seq Pho4 binding data (Le et al. 2018).
The other results are listed elsewhere or left out. Values were computed here from the reads of four pooled replicates and scatter widely.

Each sequence was assayed against T1, Pho4 (S. cerevisiae) (UniProt P07270) (assay: relative binding free energy (BET-seq); higher = weaker binding). Conditions: reference: library average.
T1 sequence: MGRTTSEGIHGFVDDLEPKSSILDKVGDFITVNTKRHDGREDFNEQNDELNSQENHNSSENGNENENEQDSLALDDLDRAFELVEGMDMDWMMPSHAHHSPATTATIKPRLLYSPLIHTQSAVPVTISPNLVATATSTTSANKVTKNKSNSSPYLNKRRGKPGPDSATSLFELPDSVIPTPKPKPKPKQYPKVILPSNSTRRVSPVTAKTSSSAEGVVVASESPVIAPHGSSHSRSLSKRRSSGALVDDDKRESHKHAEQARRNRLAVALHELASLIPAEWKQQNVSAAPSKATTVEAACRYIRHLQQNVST

Sequence	relative binding free energy
TTCTTCACGTGATGCG	0.31 kcal/mol
GTACGCACGTGGGTGT	-0.19 kcal/mol
TAGTACACGTGGGCGG	-0.05 kcal/mol
CCAGTCACGTGTGTGG	0.11 kcal/mol
GATCTCACGTGTGGGA	0.19 kcal/mol
TAGATCACGTGGTCGT	-0.04 kcal/mol
AGTTTCACGTGGCGGC	0.26 kcal/mol
GGCTACACGTGGGGTC	-0.06 kcal/mol
CAGTTCACGTGTTTGA	0.11 kcal/mol
ATTATCACGTGATGTG	0.19 kcal/mol
ATGTTCACGTGGTGTC	0.24 kcal/mol
GTTTACACGTGGGCAT	-0.06 kcal/mol
TTTCTCACGTGTAGCT	0.24 kcal/mol
TTAATCACGTGGTCTT	0.05 kcal/mol
TTTAGCACGTGTCGTC	-0.02 kcal/mol
CTAGTCACGTGGTAGG	0 kcal/mol
GTGGTCACGTGGGCAA	0 kcal/mol
TAATACACGTGGTGAA	0.09 kcal/mol
TAAGGCACGTGGAGGG	-0.23 kcal/mol
GGGTACACGTGGGCGA	-0.11 kcal/mol
TCTTGCACGTGTGTGC	0.12 kcal/mol
AGTAGCACGTGAATTG	0.14 kcal/mol
CTTTACACGTGGTGAA	0.07 kcal/mol
GTTCGCACGTGGGCGG	-0.23 kcal/mol
ATTGACACGTGGTTAG	-0.14 kcal/mol
TGATGCACGTGATTAA	0.16 kcal/mol

Sequence	relative binding free energy
CTGATCACGTGATTTT	0.28 kcal/mol
TGCTGCACGTGTTTAT	-0.02 kcal/mol
TTTTGCACGTGGCAGG	-0.08 kcal/mol
TTAAGCACGTGTCTGT	-0.09 kcal/mol
AGTTTCACGTGCTTTG	0.34 kcal/mol
GCTGGCACGTGTATAT	-0.01 kcal/mol
TGCTACACGTGGGAGT	0.03 kcal/mol
TTATTCACGTGATATT	0.29 kcal/mol
ATACGCACGTGGGTTA	-0.17 kcal/mol
GGGTTCACGTGGGCTA	0.31 kcal/mol
TTGGTCACGTGGTCCA	0.04 kcal/mol
CGTGTCACGTGATGAG	0.19 kcal/mol
CGGTGCACGTGGGTTG	-0.21 kcal/mol
TGTTCCACGTGATAGT	0.07 kcal/mol
TGGATCACGTGGTTAT	0.15 kcal/mol
TGTGTCACGTGCAAGT	0.15 kcal/mol
TTTGTCACGTGGTCTA	-0.03 kcal/mol
GTTGGCACGTGTCTTG	0 kcal/mol
GGTACCACGTGTTGGC	0.05 kcal/mol
GTAGGCACGTGTAGTG	-0.02 kcal/mol
GTGTCCACGTGGTGCG	-0.04 kcal/mol
TGCCTCACGTGGGTGG	-0.01 kcal/mol
TTGGTCACGTGCGAGT	0.15 kcal/mol
TATTGCACGTGGAAAG	0.07 kcal/mol
GTCGGCACGTGGGCTA	-0.17 kcal/mol
GGGTGCACGTGTTAAC	0 kcal/mol

Sequence	relative binding free energy
ATTGCCACGTGATATT	0.06 kcal/mol
GGAATCACGTGGATGT	0.09 kcal/mol
TTTGTCACGTGAGGGT	0.32 kcal/mol
AGGTTCACGTGGCCTT	0.17 kcal/mol
TAGGACACGTGTTCTT	0.05 kcal/mol
CGGTTCACGTGGCTTT	0.14 kcal/mol
AGAAGCACGTGAGTAG	0.21 kcal/mol
GGTGTCACGTGCAGGA	0.13 kcal/mol
CGAGACACGTGCGTGG	0.01 kcal/mol
TTTAACACGTGTGTAA	0.06 kcal/mol
TTTTTCACGTGGGGTG	0.16 kcal/mol
GTGTCCACGTGGAGAG	0.1 kcal/mol
CTGTTCACGTGGTGTT	0.18 kcal/mol
TAAGTCACGTGGGATG	0.09 kcal/mol
GTTTACACGTGAAATA	0.37 kcal/mol
GCGTTCACGTGGAGAG	0.28 kcal/mol
TAGAGCACGTGAGGTA	0.07 kcal/mol
CGCGACACGTGGGGTT	-0.1 kcal/mol
AGTTTCACGTGGCAAG	0.19 kcal/mol
TGATGCACGTGGTTAC	0.12 kcal/mol
GCCGACACGTGGGGGT	-0.15 kcal/mol
GTGGGCACGTGGCGAT	-0.1 kcal/mol
ACTGTCACGTGATGGG	0.08 kcal/mol
TGGAACACGTGAGCGG	0.09 kcal/mol
TCGTGCACGTGGGATA	-0.09 kcal/mol
ATGGTCACGTGTTAAA	0.19 kcal/mol

Sequence	relative binding free energy
GTCTCCACGTGTGGGA	0.19 kcal/mol
TATGTCACGTGGTTCT	0.04 kcal/mol
TTTCTCACGTGTGTTA	0.22 kcal/mol
AGAATCACGTGATGGG	0.26 kcal/mol
GATTTCACGTGGATCT	0.37 kcal/mol
GTTGGCACGTGTTAAT	0.12 kcal/mol
TGAGTCACGTGGTCGG	-0.04 kcal/mol
GTTCTCACGTGTGGTG	0.25 kcal/mol
ATGGTCACGTGAGCGA	0.43 kcal/mol
GTTTCCACGTGGGTTC	0.08 kcal/mol
TGGGACACGTGCGTGG	-0.01 kcal/mol
AGGCTCACGTGGTTGG	0.17 kcal/mol
AGAGGCACGTGAGCGG	0.07 kcal/mol
AAGGGCACGTGCGAGG	-0.22 kcal/mol
GATGGCACGTGGTCAA	-0.06 kcal/mol
TTAACCACGTGTTGTG	-0.13 kcal/mol
GGTTGCACGTGGGTTA	-0.11 kcal/mol
GGGTACACGTGCTGTT	-0.13 kcal/mol
GTTGGCACGTGTATCT	0.01 kcal/mol
TCATGCACGTGCGGTG	-0.1 kcal/mol
CAATTCACGTGTGGAG	0.32 kcal/mol
TGGAGCACGTGGATAG	-0.15 kcal/mol
TACGTCACGTGGAAGT	0.1 kcal/mol
AGTTACACGTGCAGGG	0.05 kcal/mol
AGACGCACGTGTGTTT	-0.07 kcal/mol
GGGTGCACGTGAAAGG	0.29 kcal/mol

Sequence	relative binding free energy
GTAGTCACGTGCTGCG	0.04 kcal/mol
GGAGTCACGTGTATAA	0.1 kcal/mol
ATTGACACGTGTTATC	0.23 kcal/mol
TGTTTCACGTGATAGC	0.27 kcal/mol
TTCTTCACGTGAATGT	0.57 kcal/mol
TTCGGCACGTGTTCGG	0.05 kcal/mol
TGGATCACGTGGGAAG	0.09 kcal/mol
CGGGTCACGTGTCAAT	0.35 kcal/mol
GGTGACACGTGTTGCT	0.05 kcal/mol
GCGGTCACGTGGGGAG	0.1 kcal/mol
AGCTGCACGTGAAAGG	0.26 kcal/mol
CTATGCACGTGATGGT	0.05 kcal/mol
TCGTTCACGTGTGATA	0.12 kcal/mol
TCTGACACGTGGTGTA	-0.03 kcal/mol
GTGCCCACGTGAGTGT	0.1 kcal/mol
TTTAACACGTGGGTTT	-0.04 kcal/mol
TGTTACACGTGGGACA	0.06 kcal/mol
GCGGCCACGTGAGTGG	0.13 kcal/mol
GGTATCACGTGGGTCG	0.12 kcal/mol
AGTAGCACGTGACAGT	0.07 kcal/mol
AAAATCACGTGTTGGT	0.09 kcal/mol
AGGTGCACGTGAGTGA	0.1 kcal/mol
TTCTGCACGTGTGCGA	0.13 kcal/mol
CGTGGCACGTGGTGTG	-0.17 kcal/mol
AGGAGCACGTGCGGGA	-0.09 kcal/mol
AGGGTCACGTGGGGCA	-0.05 kcal/mol

Sequence	relative binding free energy
TGTTACACGTGCGTTG	0.04 kcal/mol
TCGTGCACGTGATTGT	-0.01 kcal/mol
TAGCTCACGTGGGCGT	0.07 kcal/mol
TTCTTCACGTGGGTGA	0.15 kcal/mol
AAAAACACGTGGGGGC	-0.02 kcal/mol
TGGGGCACGTGTTAGG	-0.06 kcal/mol
AAGGTCACGTGTGGTG	0.14 kcal/mol
TCGCGCACGTGTGGTT	-0.04 kcal/mol
TGGGTCACGTGAATGA	0.27 kcal/mol
TGAGCCACGTGGGTGT	-0.24 kcal/mol
GATGCCACGTGTGAGT	-0.01 kcal/mol
CTTTGCACGTGTTCGT	-0.04 kcal/mol
TGAGGCACGTGGGGAA	-0.19 kcal/mol
TTTTGCACGTGGGGAC	-0.03 kcal/mol
GTATACACGTGGTTCT	0.07 kcal/mol
TCGGTCACGTGGTTAG	-0.04 kcal/mol
AGTAACACGTGAGTGG	0.24 kcal/mol
GACTGCACGTGGGGGT	-0.25 kcal/mol
CGGGGCACGTGGGGTA	-0.17 kcal/mol
GAGTTCACGTGGCATA	0.44 kcal/mol
TATTCCACGTGATGGT	0.27 kcal/mol
TATTGCACGTGATGTG	0.11 kcal/mol
GCAATCACGTGGGGTG	0.04 kcal/mol
AAATTCACGTGTCTTT	0.24 kcal/mol
TAGGTCACGTGTTATG	0.22 kcal/mol
TAGAACACGTGGTGGT	0.05 kcal/mol

Sequence	relative binding free energy
CCTGGCACGTGTAGGG	0 kcal/mol
TGAATCACGTGTAGTA	0.39 kcal/mol
AAGCACACGTGAGGGT	0.27 kcal/mol
CGCTGCACGTGCGGGT	-0.04 kcal/mol
ATGGTCACGTGGCAAG	0.1 kcal/mol
TGGAACACGTGCGGGA	0.13 kcal/mol
CGATTCACGTGGTGGT	0.19 kcal/mol
GGGATCACGTGGATAA	0.22 kcal/mol
AATAACACGTGAGGTT	0.14 kcal/mol
TTTTACACGTGGGGGA	0 kcal/mol
GAATGCACGTGGAGTT	0.17 kcal/mol
CAAGTCACGTGTTAGT	0.11 kcal/mol
TAATTCACGTGCTTAG	0.19 kcal/mol
AGGCGCACGTGGAAGG	-0.06 kcal/mol
GTTTTCACGTGTTTCC	0.27 kcal/mol
TATCGCACGTGTGTTT	-0.06 kcal/mol
CGGGGCACGTGCGCGG	-0.28 kcal/mol
TGTAACACGTGTAACT	0.1 kcal/mol
GTATTCACGTGTAACG	0.34 kcal/mol
TAGCTCACGTGTGGAG	0.44 kcal/mol
ATTTACACGTGAGATG	0.38 kcal/mol
TCATTCACGTGGTATA	0.19 kcal/mol
ACAGGCACGTGGGGTT	-0.23 kcal/mol
GGGTTCACGTGTCGTC	0.39 kcal/mol
AGTCTCACGTGTGAGG	0.22 kcal/mol
TATGTCACGTGATCTT	0.02 kcal/mol

Sequence	relative binding free energy
GATATCACGTGGTATT	0.05 kcal/mol
AGTAACACGTGTAATT	0.05 kcal/mol
TTAATCACGTGAAATT	0.29 kcal/mol
ATTTTCACGTGGAAGA	0.32 kcal/mol
CCGGGCACGTGGGTGT	-0.22 kcal/mol
ATATTCACGTGTGACT	0.31 kcal/mol
AGGACCACGTGGGGGA	-0.32 kcal/mol
CGTGACACGTGGGGTG	-0.22 kcal/mol
TATATCACGTGGGGTC	-0.05 kcal/mol
ATCGGCACGTGTGGAG	0.15 kcal/mol
GGATTCACGTGTTTCA	0.43 kcal/mol
ATTCTCACGTGAGGGT	0.3 kcal/mol
TAGAACACGTGTCGGG	0.09 kcal/mol
GGGGGCACGTGAGCAA	0.09 kcal/mol
GGGGGCACGTGGGATG	-0.14 kcal/mol
CTAGGCACGTGTGGTG	-0.09 kcal/mol
CTTTTCACGTGGTCAT	0.12 kcal/mol
TAAGTCACGTGAGGCC	0.33 kcal/mol
GGTGCCACGTGAGGGA	0.06 kcal/mol
CATGGCACGTGGAATT	0.08 kcal/mol
GAGTGCACGTGTTAGG	-0.01 kcal/mol
GGCGTCACGTGATGTA	0.21 kcal/mol
CTGGGCACGTGACGGT	0 kcal/mol
ACCTGCACGTGGGTTG	-0.11 kcal/mol
ATTGCCACGTGAGGTA	0.08 kcal/mol
GGTTACACGTGGCTTT	0.07 kcal/mol

Sequence	relative binding free energy
GCGCGCACGTGATTGG	0.15 kcal/mol
GTCCTCACGTGGGATG	0.22 kcal/mol
GTGGCCACGTGGGGAT	-0.12 kcal/mol
CCTTGCACGTGGTGGT	-0.09 kcal/mol
AGTAGCACGTGGTTTT	-0.08 kcal/mol
GGGGCCACGTGGATTT	0.08 kcal/mol
TGCGACACGTGGGTAA	-0.11 kcal/mol
ATACGCACGTGTGTTT	-0.11 kcal/mol
GGAAGCACGTGGCGAG	-0.09 kcal/mol
GTACGCACGTGTAGGA	-0.03 kcal/mol
GGTGTCACGTGCGGAA	0.01 kcal/mol
TTCAACACGTGTAGTA	0.14 kcal/mol
GGGTCCACGTGAAGGT	0.38 kcal/mol
TCTGTCACGTGTATTT	0.07 kcal/mol
GGGCGCACGTGAAGAG	0.21 kcal/mol
GCGTGCACGTGTGGAG	0.03 kcal/mol
TTAGTCACGTGAGTGT	0.37 kcal/mol
AGATGCACGTGGAGTT	-0.07 kcal/mol
AGGGTCACGTGGAAAG	0.17 kcal/mol
GGTAGCACGTGAAGTT	0.24 kcal/mol
GTGTACACGTGTGTGG	0.06 kcal/mol
ATAAACACGTGTATGT	-0.14 kcal/mol
